Sequences with one replicate were seen in a single cluster, so their values are uncertain.
The sequences below were run on ATP (assay: switch fluorescence ratio, 500 uM ATP over buffer (Cy3 cluster intensity, sum of 5 cycles each) (fold (ratio)); higher = stronger signal-on switching upon ATP binding; sequences stand for … in TCGTCGGCAGCGTCAGATGTGTATAAGAGACAGTTTTTTTTTTTTTTTTTTTTTTTTT…TC). Details: aptamer strand: ATP DNA aptamer (quencher-CACCTGGGGGAGTATTGCGGAGGAAGG + anchor), 100 nM annealed; ATP concentration: 500 uM; one replicate.
Procedure, shortened: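 Between each of five buffer/ATP cycles, the flow-cell was stripped with NaOH and re-annealed. Each cycle imaged Cy3-labelled switching-strand clusters, annealed to 100 nM quencher-labelled ATP aptamer on a modified Illumina MiSeq flow-cell, first in selection buffer and then after 15 min with 500 uM ATP at 22 °C. The fluorescence ratio is summed target-cycle over summed buffer-cycle Cy3 intensity per cluster, averaged per switch-domain sequence, with clusters outside 100-1000 RFU excluded.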
Sequence CATCGGATC has a switch fluorescence ratio of 1.03.
With CATCGGTCAA the switch fluorescence ratio was 3.23.
CATCGGTGGT was tested, and the switch fluorescence ratio was 0.994.
CATCTAAAAG showed a switch fluorescence ratio of 1.02.
For CATCTACATC, the switch fluorescence ratio was 1.06.
Work on CATCTAGTGG yielded a switch fluorescence ratio of 0.964.
For CATCTCGACA, the switch fluorescence ratio was 1.09.
CATCTCGATC gave a switch fluorescence ratio of 1.07.
Sequence CATCTGTTCT has a switch fluorescence ratio of 0.998.
Sequence CATGAAAGGC has a switch fluorescence ratio of 1.02.
CATGAAGC showed a switch fluorescence ratio of 1.03.
Sequence CATGACGTGC has a switch fluorescence ratio of 1.07.
For CATGACTGCG, the switch fluorescence ratio was 0.972.
CATGAGGGCT was tested, and the switch fluorescence ratio was 1.03.
In the case of CATGAGTTC, the switch fluorescence ratio is reported as 0.97.
CATGAGTTTG showed a switch fluorescence ratio of 1.02.
For CATGATCGGT, the switch fluorescence ratio was 0.962.
With CATGATCGTA the switch fluorescence ratio was 1.
CATGCCGCTC was tested, and the switch fluorescence ratio was 1.12.
CATGCGGCAT gave a switch fluorescence ratio of 1.
CATGCTCCAT was tested, and the switch fluorescence ratio was 0.993.
For CATGCTCGTC, the switch fluorescence ratio was 1.05.
In the case of CATGCTGTT, the switch fluorescence ratio is reported as 0.951.
With CATGGAAAGG the switch fluorescence ratio was 1.13.
In the case of CATGGCTCCG, the switch fluorescence ratio is reported as 1.1.
CATGGCTTAA gave a switch fluorescence ratio of 0.989.
CATGGCTTGA was tested, and the switch fluorescence ratio was 0.967.
In the case of CATGGGAA, the switch fluorescence ratio is reported as 0.921.
CATGGGATC was tested, and the switch fluorescence ratio was 1.04.
For CATGGGATTA, the switch fluorescence ratio was 0.963.
In the case of CATGGGCCCC, the switch fluorescence ratio is reported as 0.956.
Sequence CATGGGGACA has a switch fluorescence ratio of 0.944.
In the case of CATGGGGCTC, the switch fluorescence ratio is reported as 1.
CATGGTAGAA showed a switch fluorescence ratio of 1.02.
CATGGTTATT gave a switch fluorescence ratio of 1.05.
CATGTAAGC gave a switch fluorescence ratio of 1.02.
For CATGTCTG, the switch fluorescence ratio was 0.992.
In the case of CATGTGAGAC, the switch fluorescence ratio is reported as 1.08.
With CATGTGGCGT the switch fluorescence ratio was 0.979.
For CATTAAATAA, the switch fluorescence ratio was 0.938.
For CATTAATGGT, the switch fluorescence ratio was 1.01.
Sequence CATTACACGG has a switch fluorescence ratio of 1.01.
In the case of CATTACAGTA, the switch fluorescence ratio is reported as 1.13.
In the case of CATTAGTAA, the switch fluorescence ratio is reported as 1.02.
With CATTAGTATC the switch fluorescence ratio was 0.951.
Work on CATTAGTGCG yielded a switch fluorescence ratio of 0.978.
Sequence CATTATACGG has a switch fluorescence ratio of 1.04.
In the case of CATTATGCAC, the switch fluorescence ratio is reported as 1.11.
Sequence CATTATGCTG has a switch fluorescence ratio of 0.968.
Sequence CATTCATACT has a switch fluorescence ratio of 1.04.
With CATTCGGTTA the switch fluorescence ratio was 0.95.
For CATTCTGCA, the switch fluorescence ratio was 1.11.
CATTGCTAAG was tested, and the switch fluorescence ratio was 1.04.
In the case of CATTGGAGAA, the switch fluorescence ratio is reported as 0.964.
Work on CATTGGGAGG yielded a switch fluorescence ratio of 1.03.
CATTGTGTAG showed a switch fluorescence ratio of 1.
In the case of CATTGTGTCC, the switch fluorescence ratio is reported as 0.964.
With CATTTACCTC the switch fluorescence ratio was 1.07.
Work on CATTTGACGC yielded a switch fluorescence ratio of 1.14.
In the case of CATTTGTCTC, the switch fluorescence ratio is reported as 0.97.
CATTTGTGCT showed a switch fluorescence ratio of 0.959.
CATTTTGGA showed a switch fluorescence ratio of 1.02.
In the case of CATTTTGGAG, the switch fluorescence ratio is reported as 1.01.
In the case of CATTTTTATA, the switch fluorescence ratio is reported as 1.01.
With CATTTTTTAA the switch fluorescence ratio was 1.01.
CCAAAACGCA gave a switch fluorescence ratio of 1.23.
For CCAAAATGCT, the switch fluorescence ratio was 1.02.
CCAAATCGAT gave a switch fluorescence ratio of 0.98.
In the case of CCAAATTCAA, the switch fluorescence ratio is reported as 1.05.
CCAAATTGGT was tested, and the switch fluorescence ratio was 1.
CCAACACATG was tested, and the switch fluorescence ratio was 1.04.
Sequence CCAACCTTCT has a switch fluorescence ratio of 2.15.
CCAACGGCCG showed a switch fluorescence ratio of 1.06.
Work on CCAACGGGCT yielded a switch fluorescence ratio of 1.03.
With CCAACTTGTG the switch fluorescence ratio was 1.04.
Sequence CCAAGAAGG has a switch fluorescence ratio of 0.998.
CCAAGCGCGC was tested, and the switch fluorescence ratio was 0.96.
With CCAAGGAGCC the switch fluorescence ratio was 1.02.
For CCAAGGTGCA, the switch fluorescence ratio was 1.8.
CCAAGTCAAC gave a switch fluorescence ratio of 1.46.
CCAAGTTCCG gave a switch fluorescence ratio of 0.991.
Sequence CCAATACCGG has a switch fluorescence ratio of 0.985.
Work on CCAATATATT yielded a switch fluorescence ratio of 1.11.
CCAATATCAG showed a switch fluorescence ratio of 0.998.
In the case of CCAATGCACG, the switch fluorescence ratio is reported as 1.1.
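Also: ATP exposure 15 min at 22 °C before imaging.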
